Laboratory results: publication PMC7819943, “Rice protein-binding microarrays: a tool to detect cis-acting elements near promoter regions in rice”
The other results are listed elsewhere or left out.

Each sequence was assayed against T1, OsWOX13 (Oryza sativa, UniProt Q5QMM3 1-267) (assay: protein-binding microarray (RPBM); PBS, 2% BSA, 51.3 ng/ul salmon testes DNA, 50 uM zinc acetate, 200 nM TF, 25 C, 1 h; high values mean tight binding). Settings: protein: recombinant; tags: N-terminal polyhistidine and DsRed monomer fusion (pET32a); label: CyDye5-dUTP incorporated in the synthesized complementary strand; 3' TTTTT single-stranded linker to array surface; dsDNA, one strand shown.
T1 sequence: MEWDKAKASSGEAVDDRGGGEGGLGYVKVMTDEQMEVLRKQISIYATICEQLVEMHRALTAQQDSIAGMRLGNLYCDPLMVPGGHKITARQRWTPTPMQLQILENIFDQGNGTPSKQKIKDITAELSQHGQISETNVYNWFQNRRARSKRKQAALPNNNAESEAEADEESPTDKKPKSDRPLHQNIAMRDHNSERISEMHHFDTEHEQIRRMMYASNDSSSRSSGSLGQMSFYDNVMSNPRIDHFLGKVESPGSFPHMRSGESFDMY
Procedure, shortened: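 A custom Agilent array was converted to double-stranded form by primer extension with Cy5-dUTP and blocked with 2% BSA. Protein at 200 nM in PBS with 2% BSA, salmon testes DNA and 50 µM zinc acetate was applied for 1 h at 25 °C, followed by washing. The proteins were polyhistidine–DsRed N-terminal fusions of transcription factors, expressed in E. coli BL21-CodonPlus and Ni–NTA-purified. The binding signal is per-feature fluorescence intensity (arbitrary units) from an Axon 4000B scanner.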

Sequence	binding signal
AATTCAGCTGTCACATTGATTGGCTTGGCTAATAAGCTGTCGGAGTCACCTAGTGCAG	23800 fluorescence intensity (a.u.)
TTAAATTAGAAATACGAGGATGGTAAGGTTTGGTCTTTCACGGAGTCACCTAGTGCAG	11900 fluorescence intensity (a.u.)
GACACCACAAATTGGGCTTTGATTATTCGACATCGTGACCCGGAGTCACCTAGTGCAG	14700 fluorescence intensity (a.u.)
CTTAAAATTATAAGTATTGACAAAGGAAATCTCGAAGAAGCGGAGTCACCTAGTGCAG	10800 fluorescence intensity (a.u.)
AATTGTCCCTGATTGACACCTCTTACTTGACCCTTCTTTCCGGAGTCACCTAGTGCAG	42600 fluorescence intensity (a.u.)
ACTCTTAAATTTAATTTTAAGAATAGTTAGGATATGGAGCCGGAGTCACCTAGTGCAG	17500 fluorescence intensity (a.u.)
ATCTGTCACATTAGACATAAATAAAATATTTGCGAAATGTCGGAGTCACCTAGTGCAG	3540 fluorescence intensity (a.u.)
GATGTGACACGACAAAATTTTACACATATGATCTGAACACCGGAGTCACCTAGTGCAG	3640 fluorescence intensity (a.u.)
CCATGATTTGACAATGTGGTGCTACAGTAAACATTTGCCACGGAGTCACCTAGTGCAG	25700 fluorescence intensity (a.u.)
TCATTTGATTAATATTATCAAAATACATTCAATGTTAAATCGGAGTCACCTAGTGCAG	12000 fluorescence intensity (a.u.)
TTTATTGATTGAGAGGAACTATCTACCTCTGTAATGACATCGGAGTCACCTAGTGCAG	46600 fluorescence intensity (a.u.)
CAGAAACTGGCAATCAAATATGGGGATCAAATTTATGACGCGGAGTCACCTAGTGCAG	32000 fluorescence intensity (a.u.)
GTACAAAATTATCTAAAATTAACTACAAAATTATGTACTACGGAGTCACCTAGTGCAG	12800 fluorescence intensity (a.u.)
CAATTGACTGGCTCTCAATCATTTGCAGCTTTGGAGTCTTCGGAGTCACCTAGTGCAG	36000 fluorescence intensity (a.u.)
TCCAGTCTGAACTTTGATGGATTGAGCGGCTGCATTGCTACGGAGTCACCTAGTGCAG	3540 fluorescence intensity (a.u.)
TAATAATTTATTATGTGTATGTGTATGGCTAGGATACAGCCGGAGTCACCTAGTGCAG	16500 fluorescence intensity (a.u.)
TACTAATTTTAGCTTCCACATTTCTTGTACGCAAGCCTGTCGGAGTCACCTAGTGCAG	4200 fluorescence intensity (a.u.)
CTTACACATAATTAATTATTAAAGACCCTATGCGGAGCAACGGAGTCACCTAGTGCAG	25000 fluorescence intensity (a.u.)
CAGATTATTGAGTGGCTAAAGATCCACTACCCCTAGATAACGGAGTCACCTAGTGCAG	7380 fluorescence intensity (a.u.)
ATGGAATCAGTAATTAACTAGAAATAAATTAATACTCCTACGGAGTCACCTAGTGCAG	9880 fluorescence intensity (a.u.)
ATAAATTTTAAGTCAAATCAACCAGAAAATTCATAATTTGCGGAGTCACCTAGTGCAG	14200 fluorescence intensity (a.u.)

Sequence	binding signal
CTTTATTGATAGGATAAAATTGTTACATCGTTTACCAGATCGGAGTCACCTAGTGCAG	52600 fluorescence intensity (a.u.)
AAACTAATTTTATAATTCGTTTGGAAACCGCGAGACAAATCGGAGTCACCTAGTGCAG	14100 fluorescence intensity (a.u.)
GTTGATTGGTCGGGCGGAGCAGCGGTCGAACAGCTTGCGGCGGAGTCACCTAGTGCAG	50400 fluorescence intensity (a.u.)
GTTATAAATTGAAGTGGTTAAGCCAGTACTCCAGTTTAATCGGAGTCACCTAGTGCAG	13300 fluorescence intensity (a.u.)
CAAATGATTGCTTCAAATGATACCGAGATTATTGTCCCTACGGAGTCACCTAGTGCAG	34000 fluorescence intensity (a.u.)
TCTGACAGAATATTTTGGAATTTGCAGGTCTTGCTTCTTTCGGAGTCACCTAGTGCAG	16800 fluorescence intensity (a.u.)
AGCTCGTCCGATGGTGATTGATGTTGTCGAGCTGGGGTCGCGGAGTCACCTAGTGCAG	27000 fluorescence intensity (a.u.)
CCAATGTAATTATAATGTAAGTGCAATGCAACTTCTATATCGGAGTCACCTAGTGCAG	13600 fluorescence intensity (a.u.)
AACAGGTAGGCAGGAGGTCGGAATCTGTCACCATGTGTGTCGGAGTCACCTAGTGCAG	6560 fluorescence intensity (a.u.)
GTAAATTTAGAAGTTTTAAATGCACCCAGTAATATTTTGTCGGAGTCACCTAGTGCAG	3350 fluorescence intensity (a.u.)
GACAAACTGACACGGTGACAGTATAAGGGGCTCGCATCCGCGGAGTCACCTAGTGCAG	10600 fluorescence intensity (a.u.)
TATTATTTATTTTGTTTGTGATTTGCTTTGTTATTAATAGCGGAGTCACCTAGTGCAG	8380 fluorescence intensity (a.u.)
TCAAATTATAATGGCATGATGATTTTAAATACCTATCAAACGGAGTCACCTAGTGCAG	16100 fluorescence intensity (a.u.)
AAAATTTAATTGATTATATGCTAATAACTTTCTTGTTTTGCGGAGTCACCTAGTGCAG	51600 fluorescence intensity (a.u.)
GCCGTTAGTTAATTATTATCCGGTAAAGAAGATTAGTAGTCGGAGTCACCTAGTGCAG	12200 fluorescence intensity (a.u.)
AATATATTGATTTTAGTTTGAAGCCAAATTATTGACATTGCGGAGTCACCTAGTGCAG	17800 fluorescence intensity (a.u.)
GTTGATGTTTCAGTAATTGAAGCTTTGATGTTTTGTGTATCGGAGTCACCTAGTGCAG	36600 fluorescence intensity (a.u.)
CCAGCCACTCATCAATCACTCAAGGCCCCTCCTCCTCTCTCGGAGTCACCTAGTGCAG	10800 fluorescence intensity (a.u.)
AATATCTTGATTTGCTATTGGCTAGAAAATAGTGGGGATGCGGAGTCACCTAGTGCAG	12700 fluorescence intensity (a.u.)
AGATGACTGGCTATGATATCCAATCCTCAGTTGATCTCTTCGGAGTCACCTAGTGCAG	16100 fluorescence intensity (a.u.)
GTTTAATTTGACATCACGGCTGCATGGATCCATTTCCTCCCGGAGTCACCTAGTGCAG	33000 fluorescence intensity (a.u.)
